Experimental data taken from the RNAGym collection of RNA variant scans (doi:10.1073/pnas.2313332121).
Variants at the background level are over-represented here.

B1: TPR 5TU (parent)
chain: GGAUCUUCUCGAUCUAACAAAAAAGACAAAUCUGCCACAAAGCUUGAGAGCAUCUUCGGAUGCAGAGGCGGCAGCCUUCGGUGGCGCGAUAGCGCCAACGUUCUCAACUAUGACACGCAAAACGCGUGCUCCGUUGAAUGGAGUUUAUCAUG

Variants of: B1
Assay: polymerase ribozyme fitness, log enrichment relative to wild type (log ratio); higher = more active; in vitro selection for triplet polymerase activity
Outline: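 After PCR construction and transcription, each subunit's mutant library from a heterodimeric triplet polymerase ribozyme was annealed with a biotinylated primer, the partner subunit and triplets. Incubation was frozen, at −7 °C, and extended constructs were gel-excised, bound to streptavidin beads and amplified by RT-PCR, in one selection round done in triplicate. Fitness is the logarithm of a genotype's enrichment divided by that of the wild type, from inverse-variance-weighted replicate averages of Illumina-sequenced inputs and outputs. The base of the logarithm is 2, and genotypes needed ≥10 input reads and ≥1 read per output.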

Row | Variant | polymerase ribozyme fitness (log ratio)
1 | GGAUCUUCUCGAGCUAACAAAAAAGGCAAAGCUGCCACAAAGCUUGAGAGGAUCUUCGGAUGCAGAGGCGGCAGCCUUCGGUGGCGCCAUAGCGCCAACGUUCUCAACUAUGACACGCAAAACGCGUGCUCCGUUGAAUGGAGUUUAUCAUG | ≤ -4.2
2 | GGAUCUUCUCGAGCUAACAAAAAAGUCAAAUGAGCCACAAAGCUUGAGAGCAUGUUCGGAUGCAGUGGCGGCAGCCUUCGGUGGCGCGAUAGCGCCAACGUUCUCAACUAUGACACGAAAAACGCGUGCUCCGUUGAAUGGAGAUUAUCAUG | ≤ -4.2
3 | GGAUCUUCUCGAGCUAACAAAAAAGUCAAAUCUGCCACAAAGCUUGAGAGCAUCUUCGGAUGCAGAGGCGGCAGCCUUCGGUGGCGCGAUAGCGCGAACGUUCUCAACUAUGACACGCAGAACGCGUGCUCCGUUGAAUGGAGUUUAUCAUG | ≤ -4.2
4 | GGAUCUUCUCGAGCUAACAAAAAAGUCAAAUCCGCCACAAAGCUUGAGAGCAUCUUCGGAUGCAGAGGCGGCAGCCUUCGGUGGCGCGAUAGCGCCAACGUUCUCAACUAUGUAACGCAAAACGCGUGCUCCGUUGAAUGCAGUUUAUCAUG | ≤ -4.2
5 | GGAUCUUCUCGAGCUAACAAAAAAGACCAAUCUGCCACAAAGCUUGGGAGCAUCUUUGGAUGCAGAGGCCGCAGCCUUCGGUGGCGCGAUAGCGCUAACGUUCUCAACUAUGACACGCAAAACGCGUGCUCCGGUGAAUGGAGUUUAUCUUG | ≤ -4.2
6 | GGAUCUUCUCGAGCUAACAAAAAAGACCAAUCUGCCACAAAGCUUGAGAGCAUCUUCGGAUGCAGAGGCGGCAGUCUUCGGUGGCGCGAUGGCGCCAACGUUCUCAACGAUGACACGCAAAACGCGUGCUCCGUUGAAUGGAGUUUAUCUUG | ≤ -4.2
7 | GGAUCUUCUCGAGCUAACAAAAAAGACCAAUCCGCCACAAAGCUAGAGAGCAUCUUCGGAUGCAGAGGCGGCCGCCUUCGGUGGCGCGAUACCGCCAACGUUCUCAACUAUGACACGCAAAACGCGUGCUCCGUGGAAUGGAGUUUAUCAUG | ≤ -4.2
8 | GGAUCUUCUCGAGCUAACAAAAAAGACUAAUCUGCCACAAAGCUUGAGAGCAUCUUCGGAUGCCGAGACGGCAGCCUUUGGUGGCGCGAUAGCGCCAACGUUCUCAACUAUGACACGCAAAACGCGUGCUCCGUUGAAUGGAGUUUAUCAUG | ≤ -4.2
9 | GGAUCUUCUCGAGCUAACAAAAAAGACUAAUCUGCCACAAAGCUUGAGAGCAUCUUCGGAUGCAGAGGCGACAGCCUUCGGUGGCGCCAUAGCGCCAACGUUCUCAACUAUGACACGCAAAACGCGUGCUCCGUUGAAUGGAGUUUAUCAUG | ≤ -4.2
10 | GGAUCUUCUCGAGCUAACAAAAAAGACAUAUGUGCCACAAAGCUUGAGAGCAUCUUCGGAUGCAGAGGCGGCAGUCUUCGGUGGCGCGAUAGUGCCAACGUUCUCAACUAUGACACGCAAAACGCGUGCUCCCUUGAAUGGAGUUUAUCAUG | ≤ -4.2
11 | GGAUCUUCUCGAGCUAACAAAAAAGACAUAUCUGCCAGAAAGCUUGAGAGCAUCUUCGGAUGCAGAGGCUGCAGCCUUCGGUGGCGCGAUAGCGCCAACGUUCUCAACUAUGACACUCAUAACGCGUGCUCCGUUGAAUGGAGUUUAUUAUG | ≤ -4.2
12 | GGAUCUUCUCGAGCUAACAAAAAAGACAACUCUGCCACAAAGCUUGAGAGCAUCUUCGGAUGCAGAGGCGGCAGCCUUCGGUGGUGCGAUAGCGUCAACGUACUCAACUAUGACACGCAAAACGCGUGCUCAGUUGAAUGGAGUUAAUCAUG | ≤ -4.2
13 | GGAUCUUCUCGAGCUAACAAAAAAGACAAAUCUGCCGCAAAGCUUGAGAGCAUCUUCGGAUGCAGAGGCGGCAGCCUUCGGUGGCGCGAUAGCGCCAACGUUCUCAACUAUGACACACAAAACGCGUGCUCCGUUGAAUCGAGUUGAUCAUG | ≤ -4.2
14 | GGAUCUUCUCGAGCUAACAAAAAAGACAAAUCUGCCUCAAAGUUUGAGAGCCUCUUCGGAUGCAGAGGCGGCCGCCUUCGGUGCCGCGAUAGCGCCAACGUUCUCAACCAUGACACGCAAAACGCGUGCUCCGUUGAAUAGAGUUUAUCAUG | ≤ -4.2
15 | GGAUCUUCUCGAGCUAACAAAAAAGACAAAUCUGCCACGAAGCUUGAGAGCAUCUUCGGAUGCAGAGGCGGCCGCCUUCGGUGGCGCGAUAGCGCGAACGUUCUCAACUAUGACACGCACAACGCGUGCUCCGUUGAAUUGAGUUUAUCAUG | ≤ -4.2
16 | GGAUCUUCUCGAGCUAACAAAAAAGACAAAUCUGCCACUAAGCUUGAGAGCAUCUUCGGAUGCAGAGGCGGCAGCGUUCGGUGGCGCGAUAUCGCCAACGUUCUCAAGUAUGACACGCAAAACGCGGGCUCCGUUGAAUGGAGUAUACCAUG | ≤ -4.2
17 | GGAUCUUCUCGAGCUAACAAAAAAGACAAAUCUGCCACAGAGCUUGAGAGCAUCUACGGGUGCGGAGGCGGCAUCCUUCGGUGGCGCGAUUGCGCCAACGUUCUCAACUAUGACACGCAAAACGCGUGCUCCGUUGAAUUGAGUUUAUCAUG | ≤ -4.2
18 | GGAUCUUCUCGAGCUAACAAAAAAGACAAAUCUGCCACAUAGCUUGAGAGCAUCUUCGGAUGCAGAGGCGGCAGCCUUCGGUGGCGCGAUAGCGCGAACGUUCUCAACUAUGACACGCAAGACGCGUGCUCCGUUGAAUGGAGUUUAUCAUG | -2.57
19 | GGAUCUUCUCGAGCUAACAAAAAAGACAAAUCUGCCACAACGCUUGAGAGCAUCUUCGGAUGCAGAGGCGGCAGCCUUCGGUGGCGCGAUAGCGCUAACGUUCUCAUCUAUGACACGCAAAACGCGUGCUACAUUGAAUGGAGUUCAUCAUG | ≤ -4.2
